The list shows a part of the results. At the low end of the ranking the order means little.
Each sequence was assayed against T1, GST-Rok-C97-191 (UniProt O34857) (assay: protein binding microarray). Details: Rok is a gene silencer of Bacillus subtilis; high values mean tight binding; most listed sequences are background and not binding sites; double strand, one strand shown.
T1 sequence: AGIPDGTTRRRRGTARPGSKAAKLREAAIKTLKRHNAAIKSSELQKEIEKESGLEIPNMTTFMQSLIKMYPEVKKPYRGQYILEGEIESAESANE
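Also: rank score from −0.5 (least bound) to 0.5 (best bound).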

| Sequence | binding signal |
| --- | --- |
| GTAGAGAA | 0.135 E-score |
| TATATCGA | 0.314 E-score |
| ACACTCAT | -0.168 E-score |
| GAATTACC | 0.18 E-score |
| GAAAGATA | 0.329 E-score |
| AGATTTAC | 0.205 E-score |
| CGGCGCGC | -0.31 E-score |
| AGATGCAA | -0.0738 E-score |
| TCCATTCA | -0.131 E-score |
| GCTTACGA | 0.0382 E-score |
| AATCAGGG | -0.138 E-score |
| GCTGGGGA | -0.22 E-score |
| AAGGCATG | 0.00172 E-score |
| TGCTGAAA | -0.0784 E-score |
| CTAGAGCC | -0.0458 E-score |
| TCACTGCA | -0.0738 E-score |
| CGGCGAGA | -0.0401 E-score |
| CGTTGATA | 0.181 E-score |
| AGTTATCC | 0.14 E-score |
| GCGTTTAA | -0.000341 E-score |
| CAAGGTGG | -0.183 E-score |
| AAGCAGGA | -0.162 E-score |
| ATCTTGGG | -0.154 E-score |
| ACCATTAG | 0.127 E-score |
| CTTAATAC | 0.0879 E-score |

| Sequence | binding signal |
| --- | --- |
| AATAGCTA | 0.329 E-score |
| AAGGGTCT | -0.165 E-score |
| GGGGGCGA | -0.305 E-score |
| CGTAAACC | 0.099 E-score |
| AAGACCAT | 0.0367 E-score |
| ACTGCACA | 0.168 E-score |
| ACAGACTA | 0.0827 E-score |
| CCGACGCG | -0.18 E-score |
| CAGCCGTA | -0.0607 E-score |
| GGATGGGA | -0.147 E-score |
| ACCCGATC | -0.151 E-score |
| GGCGAACA | -0.32 E-score |
| ACATCACT | -0.015 E-score |
| CTGTTGTC | -0.128 E-score |
| ACCCGCTC | -0.169 E-score |
| CTTGGTCC | -0.254 E-score |
| ACAGAGAA | -0.107 E-score |
| CTTTGCAC | 0.147 E-score |
| CTGTGTCC | -0.0743 E-score |
| ACATACGA | 0.0378 E-score |
| TAATCGCA | 0.012 E-score |
| ATTTAGGG | -0.024 E-score |
| CAAGCATC | -0.111 E-score |
| CTCAATCC | -0.024 E-score |
| GAGGGTGC | -0.117 E-score |

| Sequence | binding signal |
| --- | --- |
| ATGTAACA | 0.22 E-score |
| TCCCTCGA | -0.0813 E-score |
| AGGCATAT | -0.0106 E-score |
| AGGGTCTC | -0.305 E-score |
| CGAGGTTA | 0.1 E-score |
| ATGTCCCG | -0.143 E-score |
| AGAGCCAC | -0.242 E-score |
| AAAGGGCT | -0.271 E-score |
| ATGTATTC | 0.23 E-score |
| AAGGACCC | -0.274 E-score |
| GTATTGTA | 0.212 E-score |
| ATGATTTA | 0.0677 E-score |
| ACCGAAAA | 0.254 E-score |
| AGCTACCT | 0.209 E-score |
| AAATTATC | 0.364 E-score |
| CTACGAAG | 0.139 E-score |
| ACCCCTCT | -0.234 E-score |
| CACGCATC | 0.0237 E-score |
| CGATGGAA | 0.00647 E-score |
| TCCGGGCA | -0.169 E-score |
| CATCGCCG | -0.178 E-score |
| AACTAATA | 0.288 E-score |
| CCTGCAAC | -0.103 E-score |
| ATAGAGTG | 0.0207 E-score |
| ATTATCGG | 0.177 E-score |

| Sequence | binding signal |
| --- | --- |
| ACAGACGA | 0.165 E-score |
| GATATGCC | 0.0339 E-score |
| AGAAATTC | 0.184 E-score |
| ATAGACAA | 0.0932 E-score |
| AATGTGGA | 0.0237 E-score |
| ACTTAGAG | 0.0787 E-score |
| AAACCACA | 0.135 E-score |
| ATAATCGA | 0.22 E-score |
| CTACATAG | 0.152 E-score |
| TGATGCAA | 0.0017 E-score |
| ACATTAAG | 0.0456 E-score |
| AACTGAAG | -0.0934 E-score |
| GGCCCACC | -0.342 E-score |
| ACCTTGAG | -0.0415 E-score |
| AGGGTTGC | -0.217 E-score |
| AACGACTC | -0.177 E-score |
| CCGGGCTC | -0.311 E-score |
| CTTCTCCA | -0.00958 E-score |
| CGGATTCC | -0.161 E-score |
| GACGAACC | -0.197 E-score |
| GCCCCGGC | -0.231 E-score |
| AAGTCTAT | -0.116 E-score |
| ATGTAATG | 0.162 E-score |
| GATAACCC | -0.0417 E-score |
| GTATGGCA | 0.044 E-score |

| Sequence | binding signal |
| --- | --- |
| GACTTTGC | -0.0626 E-score |
| AGACACAT | -0.0118 E-score |
| GACCGGTA | 0.258 E-score |
| ACCGTCGG | -0.166 E-score |
| AGGTTGGA | -0.242 E-score |
| CCCAGAGC | -0.301 E-score |
| CCATGCCG | -0.0764 E-score |
| GACACATA | 0.0778 E-score |
| CTGCACAG | -0.0791 E-score |
| AAGCGGTG | -0.104 E-score |
| AATTAGTC | 0.261 E-score |
| ATCCTAAT | 0.217 E-score |
| TCAACGGA | -0.0515 E-score |
| AGACAGTA | 0.0933 E-score |
| TCGATCAA | 0.27 E-score |
| CTGACCTC | -0.23 E-score |
| CAACTTAA | -0.013 E-score |
| CTCTTCGA | -0.0372 E-score |
| AGGTAGGA | 0.0283 E-score |
| ATGTTACA | 0.194 E-score |
| ATAGGATC | 0.199 E-score |
| AGCGTCAC | -0.0853 E-score |
| GCCCATAC | -0.145 E-score |
| GAACGACC | -0.143 E-score |
| CCCCTGCG | -0.193 E-score |

| Sequence | binding signal |
| --- | --- |
| AGAACTAG | 0.291 E-score |
| CCCCACTC | -0.284 E-score |
| CGATCTTC | 0.106 E-score |
| GCAACACA | -0.099 E-score |
| CTCTGGCC | -0.137 E-score |
| GACTGATA | 0.171 E-score |
| TCGCGAAA | 0.15 E-score |
| GGACCATA | 0.00746 E-score |
| AGCACCCA | -0.195 E-score |
| AGCGCGCG | 0.0641 E-score |
| AGGCTATG | -0.178 E-score |
| ATAGGCAC | 0.0794 E-score |
| AAATACTG | 0.283 E-score |
| ACGAAACT | 0.31 E-score |
| CTCTGTTC | -0.0377 E-score |
| GGCGCTAA | -0.0606 E-score |
| ACCACTCT | -0.0505 E-score |
| GCATCCCA | -0.221 E-score |
| AGCCCAGG | -0.211 E-score |
| GCCGCCCC | -0.365 E-score |
| CAAAAGGC | -0.159 E-score |
| GCTATGCA | 0.103 E-score |
| CCCACTAA | 0.0279 E-score |
| AAGGAAAA | -0.134 E-score |
| ACCTCTAC | 0.124 E-score |

| Sequence | binding signal |
| --- | --- |
| GCCAAGGC | -0.387 E-score |
| CATAAACG | 0.00369 E-score |
| ATTGTGAC | -0.0654 E-score |
| ACAAATAA | 0.246 E-score |
| CCTATCAA | 0.00333 E-score |
| GATGTCGC | -0.118 E-score |
| GGGTCAAC | -0.214 E-score |
| CTACTCCA | 0.141 E-score |
| CGACGAGC | -0.101 E-score |
| AAGAGCTT | -0.0675 E-score |
| CGTGGCAC | -0.208 E-score |
| ATGTCTAC | -0.0174 E-score |
| CATATCTC | 0.0436 E-score |
| CCCGCCAG | -0.301 E-score |
| AGAGGGGG | -0.305 E-score |
| GATCCCTA | 0.0107 E-score |
| ATATGCAT | 0.151 E-score |
| ATGAGAGC | -0.0638 E-score |
| ACCATCGG | 0.0593 E-score |
| ACTACGAT | 0.362 E-score |
| GGACAGCC | -0.25 E-score |
| GAAGAATA | 0.183 E-score |

From article PMC6212790
